From the RNAGym collection of RNA variant scans (doi:10.1093/nar/gkz1192)
The source gives no read counts; variants with many changes may rest on few reads.

B1: CPEB3 Ribozyme (parent)
chain: UAACAGGGGGCCACAGCAGAAGCGUUCACGUCGCAGCCCCUGUCAGAUUCUGGUGAAUCUGCGAAUUCUGCUGUAUAUCUC

Variants of: B1
Assay: self-cleavage, relative activity (ratio to wild type); higher = more cleavage; in vitro, sequencing
Method in brief: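 Libraries of CPEB3 self-cleaving ribozyme mutants came from rounds of error-prone PCR and carried barcodes, which DNA sequencing matched to variants. In vitro transcription used T7 RNA polymerase at 37°C for 5 hours, with a further 15 min in DNase I before EDTA stopped the reaction; the ribozymes cleaved during both steps. The RNA was reverse transcribed with template switching and sequenced on Illumina. Relative activity is the cleaved/total read fraction of a variant divided by that of the unmutated ribozyme, averaged over three batches with at least 5 reads.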
Work on U1C G24A A28G A57U yielded a self-cleavage of 0.06. In the case of U1C G24A A45U U49C A64G, the self-cleavage is reported as 0.31. Variant U1C G24C U60C has a self-cleavage of 0.17. Work on U1C G24U A28G A65G A75G yielded a self-cleavage of 0.07. Variant U1C G30A A45G has a self-cleavage of 0.06. For U1C G30A G52A, the self-cleavage was 0.26. For U1C G30A U76C, the self-cleavage was 0.26. With U1C G33A A35U C39A A75U U80C the self-cleavage was 0.16. For U1C G33A A57G, the self-cleavage was 0.05. U1C G33A G36A A64U gave a self-cleavage of 0.06. With U1C G33A U49C A65U the self-cleavage was 0.05. Work on U1C G33A U72G G73C U78C yielded a self-cleavage of 0.3. In the case of U1C G36C C44A A45G U51C A65G U78C, the self-cleavage is reported as 0.12. U1C G36U U49C gave a self-cleavage of 0.15. In the case of U1C G36U U72A, the self-cleavage is reported as 0.05. In the case of U1C G42A U54C, the self-cleavage is reported as 0.5. U1C G46U U58A A64U U72C U80C gave a self-cleavage of 0.07. For U1C G52U U67A U72C U74C U76A, the self-cleavage was 0.4. Work on U1C G53U U72C yielded a self-cleavage of 1.21. For U1C G61A U74C U78C, the self-cleavage was 0.81. Variant U1C G61U U80C has a self-cleavage of 0.19. With U1C U25A A35G U43A U48C U58C the self-cleavage was 0.05. With U1C U25A A45G U48C the self-cleavage was 0.06. In the case of U1C U25A A75U U78C, the self-cleavage is reported as 0.09. U1C U25A G33U U51A G63A U72G showed a self-cleavage of 0.04. Work on U1C U25A G42A U58C U67C U78A U80C yielded a self-cleavage of 0.04. U1C U25A U26A U41C U78C showed a self-cleavage of 0.09. For U1C U25A U48C A64G U69C, the self-cleavage was 0.13. With U1C U25A U54C A75U the self-cleavage was 0.06. U1C U25C A28G U41C U72C U74A gave a self-cleavage of 0.05. U1C U25C A35G gave a self-cleavage of 0.57. With U1C U25C A35G U43C A75G the self-cleavage was 0.08. Variant U1C U25C A47G has a self-cleavage of 0.19. Variant U1C U25C A47G U60C U72C has a self-cleavage of 0.26. With U1C U25C A64G U72C the self-cleavage was 0.34. U1C U25C C68A showed a self-cleavage of 0.23. U1C U25C G46U gave a self-cleavage of 0.3. Variant U1C U25C U26A U54C U69A has a self-cleavage of 0.04. With U1C U25C U26G A35G U48C the self-cleavage was 0.42. In the case of U1C U25C U31C, the self-cleavage is reported as 0.41. Variant U1C U25C U49C U69A has a self-cleavage of 0.03. Variant U1C U25C U51A U54A has a self-cleavage of 0.07. U1C U25C U58C showed a self-cleavage of 0.05. For U1C U25C U66C U72C, the self-cleavage was 0.47. For U1C U25C U67C, the self-cleavage was 0.05. For U1C U25C U67C U69A, the self-cleavage was 0.06. U1C U25C U69A gave a self-cleavage of 0.22. Work on U1C U25C U72C U80C yielded a self-cleavage of 0.47. For U1C U25C U74C U80C, the self-cleavage was 0.53. U1C U26A A45G gave a self-cleavage of 0.56. Variant U1C U26A C27A has a self-cleavage of 0.07. For U1C U26A U31C U60C U66C, the self-cleavage was 0.13. For U1C U26C A35G, the self-cleavage was 1.08. U1C U26C A45G C50A showed a self-cleavage of 0.11. Variant U1C U26C A47U U80C has a self-cleavage of 0.39. U1C U26C A57U U74G showed a self-cleavage of 0.19. Work on U1C U26C C37A U69C U72C U76A yielded a self-cleavage of 0.09. For U1C U26C U31A U48C A65U, the self-cleavage was 0.08. U1C U26C U31A U67C G70A gave a self-cleavage of 0.13. For U1C U26C U41C, the self-cleavage was 0.57. In the case of U1C U26C U41C A56G, the self-cleavage is reported as 0.23. Work on U1C U26C U43A A47U U54A U74C yielded a self-cleavage of 0.21. U1C U26C U54C A77G showed a self-cleavage of 0.5. For U1C U26C U67A, the self-cleavage was 0.06. With U1C U31A A35G U43C the self-cleavage was 0.82. In the case of U1C U31A A64U, the self-cleavage is reported as 0.09. Variant U1C U31A A65U U66C has a self-cleavage of 0.27. With U1C U31A U48C the self-cleavage was 0.19. Variant U1C U31C A35G C40A U60C U66C U72C has a self-cleavage of 0.06. Variant U1C U31C A35U U43A U69A has a self-cleavage of 0.1. Work on U1C U31C A56G A64U U72C A77G U80G yielded a self-cleavage of 0.09. With U1C U31C A64G the self-cleavage was 0.35. With U1C U31C C32U U54C U66A the self-cleavage was 0.06. With U1C U31C C44A G46A U66C the self-cleavage was 0.07. U1C U31C G70C gave a self-cleavage of 0.13. U1C U31C U41C gave a self-cleavage of 0.66. U1C U31C U41C U58C U69C showed a self-cleavage of 0.14. For U1C U31C U51A, the self-cleavage was 0.68. With U1C U31C U51G the self-cleavage was 0.31. With U1C U31C U54C A64U the self-cleavage was 0.18. In the case of U1C U31C U58C, the self-cleavage is reported as 0.3. Variant U1C U31C U58G has a self-cleavage of 0.4. Variant U1C U31C U66A has a self-cleavage of 0.39.
